Test results from US20180164286A1 (MEDICAL DIAGNOSTIC LABORATORIES, published 2018).

B1: Small BiT (SB)-eIF4E, full-length (other)
chain: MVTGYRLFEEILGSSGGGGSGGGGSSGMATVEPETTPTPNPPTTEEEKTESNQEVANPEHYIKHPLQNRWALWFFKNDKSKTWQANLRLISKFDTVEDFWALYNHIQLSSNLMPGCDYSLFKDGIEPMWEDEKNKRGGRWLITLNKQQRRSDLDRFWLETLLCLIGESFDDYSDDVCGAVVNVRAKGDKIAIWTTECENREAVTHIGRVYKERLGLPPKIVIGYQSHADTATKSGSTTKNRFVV
notes: N-terminal Small BiT fusion of full-length eIF4E (cDNA Origene RC207333), expressed intracellularly in HEK293, MCF-7 or HEK293-derived clones; also called Full-length SB-eIF4E; SB-linked eIF4E
B2: LB-4E-BP1 with T37E and T46E mutations (other)
chain: MVFTLEDFVGDWEQTAAYNLDQVLEQGGVSSLLQNLAVSVTPIQRIVRSGENALKIDIHVIIPYEGLSADQMAQIEEVFKVVYPVDDHHFKVILPYGTLVIDGVTPNMLNYFGRPYEGIAVFDGKKITVTGTLWNGNKIIDERLITPDGSMLFRVTINSGSSGGGGSGGGGSSG[about 120 residues with changes not written out]
notes: Phospho-mimetic double mutant made on the LB-4E-BP1 plasmid; The residue numbers count on 4E-BP1 itself; also called T37/46E (double-mutant)
B3: LB-4E-BP1 with T70E mutation (other)
chain: MVFTLEDFVGDWEQTAAYNLDQVLEQGGVSSLLQNLAVSVTPIQRIVRSGENALKIDIHVIIPYEGLSADQMAQIEEVFKVVYPVDDHHFKVILPYGTLVIDGVTPNMLNYFGRPYEGIAVFDGKKITVTGTLWNGNKIIDERLITPDGSMLFRVTINSGSSGGGGSGGGGSSG[about 120 residues with changes not written out]
notes: Phospho-mimetic mutant made on the LB-4E-BP1 plasmid; The residue number counts on 4E-BP1 itself; also called T7OE
B4: LB-4E-BP1 with T37E mutation (other)
chain: MVFTLEDFVGDWEQTAAYNLDQVLEQGGVSSLLQNLAVSVTPIQRIVRSGENALKIDIHVIIPYEGLSADQMAQIEEVFKVVYPVDDHHFKVILPYGTLVIDGVTPNMLNYFGRPYEGIAVFDGKKITVTGTLWNGNKIIDERLITPDGSMLFRVTINSGSSGGGGSGGGGSSG[about 120 residues with changes not written out]
notes: Phospho-mimetic mutant made on the LB-4E-BP1 plasmid
B5: LB-4E-BP1 with T46E mutation (other)
chain: MVFTLEDFVGDWEQTAAYNLDQVLEQGGVSSLLQNLAVSVTPIQRIVRSGENALKIDIHVIIPYEGLSADQMAQIEEVFKVVYPVDDHHFKVILPYGTLVIDGVTPNMLNYFGRPYEGIAVFDGKKITVTGTLWNGNKIIDERLITPDGSMLFRVTINSGSSGGGGSGGGGSSG[about 120 residues with changes not written out]
notes: Phospho-mimetic mutant made on the LB-4E-BP1 plasmid; The residue number counts on 4E-BP1 itself

Assays:
[1] = molecular target: T1, 4E-BP1 with C-terminal LB at residue 75 (UniProt Q13541 1-75); experiment: split-luciferase (NanoBiT) luminescence in HEK293 cells
T1 construct: range 1-75; C-terminally truncated 4E-BP1 with the Large BiT attached at the truncated end; not shown: linker and Large BiT of vector pBiT1.1-C [TK/LgBiT] at the C-terminus

[2] = molecular target: B1; experiment: split-luciferase (NanoBiT) complementation in HEK293 cells
[3] = molecular target: B1; experiment: split-luciferase (NanoBiT) complementation in HEK293 cells, FIG. 21

binding result [3] | Binder | other results
 | B1 | binding result [1]: no binding
 | B2 | binding result [2]: binds
binds | B3 | 
binds | B4 | 
binds | B5 | 
